“And” between values parts separate entries of the source, which are not always exact repeats. Identical values can stand only once. In all, about 340,000 compounds went through this assay and about 12,000 (3.5%) were called active. Inconclusive results, whose numbers are uncertain, are shown with a selection of clear calls. Calls come from the whole dose curve; as a rule, active = well fitted inhibition curve with a large enough effect; inconclusive = small, poorly fitted or top-dose-only effect, or another doubt; inactive = no such curve, though single readings can be large or run the other way. Potencies of inconclusive entries are doubtful fits and often do not repeat.
Assay: qHTS Assay for Inhibitors of Hepatitis C Virus (HCV)
Settings: Huh7.5.1 HCVcc-Cre (HCVcc is cell-culture hepatitis C virus) infection, luciferase reporter, 44 h; activity change, negative = inhibition: at 41.8 µM (top of the series) unless noted
How it was run: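 Cells seeded at 1,000/well and cultured 4 h, then compounds added followed by HCVcc-Cre virus (~0.5 moi). After 44 h further culture, luciferase substrate was added, plates held 15 min at room temperature, and luminescence read for 15 sec.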
% is set by controls: 0 for no effect and ±100 for the full control effect; potency is the fitted concentration of half-maximal effect; tags give direction and shape of the fitted curve.

SMILES | activity change, negative = inhibition | Potency
CC(C)c1c(C(=O)N/N=C/c2ccccc2OCc2c(F)cccc2Cl)nnn1-c1nonc1N | inactive: -20.3% | 
COc1ccc(Nc2oc(-c3ccccc3Cl)nc2C#N)cc1 |  | inconclusive: 10 µM [inhibitor, single point]
CCn1c(Sc2nc(C)nc3scc(-c4cccs4)c23)n[nH]c1=O |  | inconclusive: 10 µM [inhibitor, partial curve]
CCN(CC)CCCNC(=S)N1CCN(c2nc(-c3ccc(F)cc3)cs2)CC1 |  | active: 3.98 µM
CC[C@]12c3[nH]c4cc(CCC(=O)N(C)C)ccc4c3CCN1C(=O)[C@@H](CC(=O)NCc1cccc(C(F)(F)F)c1)C[C@@H]2C(=O)N1CCN(C(=O)C2CC2)CC1 |  | active: 0.562 µM
CCOc1ccccc1OCC(=O)Nc1cccc(S(=O)(=O)N2CCCCCC2)c1 |  | inconclusive: 10 µM [inhibitor, partial curve]
C/C(=N\Nc1ncc(Cl)cc1Cl)c1ccc(S(=O)(=O)NCc2ccco2)cc1 |  | inconclusive: 11.2 µM [inhibitor, partial curve]
CCNC(=S)N=Nc1c(O)[nH]c2ccc(C(C)C)cc12 |  | inconclusive: 14.1 µM [inhibitor, partial curve]
CC(C)CCNC(=O)CCC(=O)NNc1nc2ccccc2c2nc(-c3ccccc3)nn12 | inactive: -24.2% | 
Cc1ccc(C)c(/C=N/Nc2ccccn2)c1 |  | inconclusive: 7.08 µM [inhibitor, partial curve]
Cc1nc2ccccc2c2oc(C(=O)NCCN3CCCCC3C)cc12 (centres undefined) |  | inconclusive: 11.2 µM [inhibitor, partial curve]
c1ccc(Cc2nn3c(COc4ccccc4)nnc3s2)cc1 | inactive: 8.64% | 
CCCCCn1c(SCC(=O)OCC)nc2cc(C(=O)NCc3ccco3)ccc2c1=O |  | inconclusive: 3.16 µM [inhibitor, partial curve, poor fit]
COc1ccc(OC2C(=O)N(Cc3ccc(F)cc3)C2c2ccc(OC)c(OC)c2)cc1 (centres undefined) | inactive: -12.5% | 
CN1CCN(C(=O)c2ccc3c(=O)n(Cc4ccc(Cl)cc4)c(=S)[nH]c3c2)CC1 |  | inconclusive: 2.51 µM [inhibitor, partial curve]
Cc1c(C(=O)NCCSCc2ccc(F)cc2)cnn1-c1ccc(Cl)cc1 | inconclusive: -50.7% [inhibitor] | 
OC(COCc1ccc(Cl)cc1)CN1CCN(CC(O)COCc2ccc(Cl)cc2)CC1 (centres undefined) |  | active: 11.2 µM
CCC(C)Sc1ccc(-c2nc3ccc(C)cn3c2NCc2ccccc2)cc1OC (centres undefined) |  | active: 3.98 µM
O=C1c2ccccc2C(Nc2ccc3c(c2)OCO3)N1Cc1ccc2c(c1)OCO2 (centres undefined) |  | inactive and inconclusive: 11.2 µM [inhibitor, partial curve]
CC(=O)c1cccc(NC(=O)C2CC(c3ccc(F)cc3)=NO2)c1 (centres undefined) | inactive: -5.37% | 
COc1cc(SC)ccc1C(=O)OCC(=O)NC1CCCCC1 |  | inconclusive: 31.6 µM [inhibitor, single point]
O=C(Cn1c(O)c(/C=C2\C=Nc3ccccc32)sc1=O)Nc1ccc2c(c1)OCO2 |  | inconclusive: 1.12 µM [inhibitor, full curve]

SMILES | activity change, negative = inhibition | Potency
Cc1ccc(C23CC4CC(CC(C(=O)N5CCOCC5)(C4)C2)C3)cc1 |  | inconclusive: 12.6 µM [inhibitor, partial curve]
Cc1ccc(C)c(SCC(=O)Nc2cc(S(=O)(=O)N3CCOCC3)ccc2C)c1 |  | inconclusive: 11.2 µM [inhibitor, partial curve]
COc1ccccc1-c1cc(C(=O)Nc2cc(C)nn2-c2ccccc2)no1 |  | inconclusive: 3.16 µM [inhibitor, full curve]
Cn1nc(-c2ccc(Cl)cc2)c2cc(C(=O)NCc3ccco3)sc21 |  | inconclusive: 31.6 µM [inhibitor, single point]
COC(=O)C1=CN(c2ccc(OC)cc2)C=C(C(=O)OC)C1c1cccc(F)c1 |  | inconclusive: 2.82 µM [inhibitor, single point]
CCCCCCC(=O)NNC(=O)c1c(O)c2ccccc2n(CC)c1=O |  | inconclusive: 31.6 µM [inhibitor, single point]
CN(C)c1ccc(C2C=C(c3ccc(Cl)cc3OC(F)F)Nc3ncnn32)cc1 (centres undefined) |  | active: 10 µM
Cc1ccc(N(C)C(=O)c2cc(S(=O)(=O)N3CCc4ccccc43)cn2C)cc1 |  | inconclusive: 31.6 µM [inhibitor, single point]
Cc1ccnc(NC(=O)c2cc3c(=O)oc4ccc(C)cc4c3s2)c1 | inactive: -7.17% | 
COc1ccc(S(=O)(=O)N2CCCCC2)cc1NC(=O)Cc1sc(C)nc1-c1ccc(F)cc1 |  | inconclusive: 11.2 µM [inhibitor, single point]
S=C(NCC1CCCO1)N1CCN(c2nc(-c3ccccc3)cs2)CC1 (centres undefined) |  | active: 10 µM
Cc1cccc(C)c1NC(=O)CSc1nc(-c2ccco2)cc(C(F)(F)F)n1 |  | inconclusive: 2 µM [inhibitor, full curve]
CCCn1c(NCc2cccc(OC)c2O)nc2ccccc21 |  | inconclusive: 2.24 µM [inhibitor, full curve, poor fit]
Cc1cc(C)nc(SCc2nnc(SCC(=O)Nc3ccc(C)c(C)c3)n2Cc2ccco2)n1 |  | active: 25.1 µM
CN1CCN(CC(O)COC(c2ccccc2)c2ccccc2)CC1 (centres undefined) |  | active: 15.8 µM
CCOc1cccc(-c2c(C(=O)N/N=C/c3sccc3C)nnn2-c2nonc2N)c1 |  | inconclusive: 22.4 µM [inhibitor, single point]
COc1ccccc1CNS(=O)(=O)c1cc(C(=O)N(C)Cc2cccnc2)c(Cl)cc1Cl |  | inconclusive: 31.6 µM [inhibitor, single point]
C(=N\Nc1nc2ccccc2[nH]1)/c1ccncc1 | inactive: -20% | 
Oc1c(Cl)cc(Oc2cc(Cl)c(O)c(CN3CCOCC3)c2)cc1CN1CCOCC1 |  | inconclusive: 7.08 µM [inhibitor, partial curve]
O=C(Oc1ccc2c(c1)OCC2=O)c1ccc(Cl)cc1 | inactive: 2.57% | 
CCOc1ccc2nc(SCC(=O)NCc3ccccc3)[nH]c2c1 | inactive: -11.2% | 
CN(CCOc1ccccc1)C(=S)Nc1ccc(OC(F)F)cc1 |  | inconclusive: 31.6 µM [inhibitor, single point]
